# The list shows a part of the results.
# B1: Gal 3C (Homo sapiens), P17931 (protein)
# chain: YGAPAGPLIVPYNLPLPGGVVPRMLITILGTVKPNANRIALDFQRGNDVAFHFNPRFNENNRRVIVCNTKLDNNWGREERQSVFPFESGKPFKIQVLVEPDHFKVAVNDAHLLQYNHRVKKLNEISKLGISGDIDLTSASYTMI
# Tests used:
# Assay in all cases: glycan array binding signal (z-score within array); higher = stronger binding
# Settings in all cases: glycan notation: IUPAC condensed, linker removed
# [1] = molecular target: Neu5Ac(a2-3)Gal6S(b1-4)[Fuc(a1-3)]GlcNAc
# Method in brief: (§1)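 Glycan array data came from 3228 arrays in the Consortium for Functional Glycomics database, and only arrays with an available protein sequence were kept. Glycan names were put into IUPAC-condensed notation, and columns mapping to the same glycan were averaged. The binding signal is a within-array Z-score, averaged across arrays of one protein sequence run at different concentrations or buffers and across linkers. A negative Z-score can be read as non-binding.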
# Neu5Ac(a2-3)GalNAc = molecular target: Neu5Ac(a2-3)GalNAc
# Method in brief: as §1
# [2] = molecular target: Neu5Ac(a2-3)GalNAc(b1-4)GlcNAc
# Method in brief: as §1
# [3] = molecular target: Neu5Ac(a2-3)[GalNAc(b1-4)]Gal(b1-4)Glc
# Method in brief: as §1
# [4] = molecular target: Neu5Ac(a2-3)[GalNAc(b1-4)]Gal(b1-4)GlcNAc
# Method in brief: as §1
# [5] = molecular target: Neu5Ac(a2-3)[GalNAc(b1-4)]Gal(b1-4)GlcNAc(b1-3)GalNAc
# Method in brief: as §1
# [6] = molecular target: Neu5Ac(a2-3)[Neu5Ac(a2-6)]GalNAc
# Method in brief: as §1
# Neu5Ac(a2-6)Gal = molecular target: Neu5Ac(a2-6)Gal
# Method in brief: as §1
# [7] = molecular target: Neu5Ac(a2-6)Gal(b1-3)GlcNAc(b1-3)[Gal(b1-4)GlcNAc(b1-6)]Gal(b1-4)Glc
# Method in brief: as §1
# Neu5Ac(a2-6)Gal(b1-4)Glc = molecular target: Neu5Ac(a2-6)Gal(b1-4)Glc
# Method in brief: as §1
# [8] = molecular target: Neu5Ac(a2-6)Gal(b1-4)GlcNAc
# Method in brief: as §1
# [9] = molecular target: Neu5Ac(a2-6)Gal(b1-4)GlcNAc(b1-2)Man
# Method in brief: as §1
# [10] = molecular target: Neu5Ac(a2-6)Gal(b1-4)GlcNAc(b1-2)Man(a1-3)Man(b1-4)GlcNAc(b1-4)GlcNAc
# Method in brief: as §1
# [11] = molecular target: Neu5Ac(a2-6)Gal(b1-4)GlcNAc(b1-2)Man(a1-3)[Gal(b1-4)GlcNAc(b1-2)Man(a1-6)]Man(b1-4)GlcNAc(b1-4)GlcNAc
# Method in brief: as §1
# [12] = molecular target: Neu5Ac(a2-6)Gal(b1-4)GlcNAc(b1-2)Man(a1-3)[GlcNAc(b1-2)Man(a1-6)]Man(b1-4)GlcNAc(b1-4)GlcNAc
# Method in brief: as §1
# [13] = molecular target: Neu5Ac(a2-6)Gal(b1-4)GlcNAc(b1-2)Man(a1-3)[GlcNAc(b1-4)][Neu5Ac(a2-6)Gal(b1-4)GlcNAc(b1-2)Man(a1-6)]Man(b1-4)GlcNAc(b1-4)GlcNAc
# Method in brief: as §1
# [14] = molecular target: Neu5Ac(a2-6)Gal(b1-4)GlcNAc(b1-2)Man(a1-3)[Man(a1-6)]Man(b1-4)GlcNAc(b1-4)GlcNAc
# Method in brief: as §1
# [15] = molecular target: Neu5Ac(a2-6)Gal(b1-4)GlcNAc(b1-2)Man(a1-3)[Neu5Ac(a2-3)Gal(b1-4)GlcNAc(b1-2)Man(a1-6)]Man(b1-4)GlcNAc(b1-4)GlcNAc
# Method in brief: as §1
# [16] = molecular target: Neu5Ac(a2-6)Gal(b1-4)GlcNAc(b1-2)Man(a1-3)[Neu5Ac(a2-6)Gal(b1-4)GlcNAc(b1-2)Man(a1-6)]Man(b1-4)GlcNAc(b1-4)GlcNAc
# Method in brief: as §1
# [17] = molecular target: Neu5Ac(a2-6)Gal(b1-4)GlcNAc(b1-2)Man(a1-3)[Neu5Ac(a2-6)Gal(b1-4)GlcNAc(b1-2)Man(a1-6)]Man(b1-4)GlcNAc(b1-4)[Fuc(a1-6)]GlcNAc
# Method in brief: as §1
# [18] = molecular target: Neu5Ac(a2-6)Gal(b1-4)GlcNAc(b1-2)Man(a1-6)Man(b1-4)GlcNAc(b1-4)GlcNAc
# Method in brief: as §1
# [19] = molecular target: Neu5Ac(a2-6)Gal(b1-4)GlcNAc(b1-2)Man(a1-6)[Gal(b1-4)GlcNAc(b1-2)Man(a1-3)]Man(b1-4)GlcNAc(b1-4)GlcNAc
# Method in brief: as §1
# [20] = molecular target: Neu5Ac(a2-6)Gal(b1-4)GlcNAc(b1-2)Man(a1-6)[GlcNAc(b1-2)Man(a1-3)]Man(b1-4)GlcNAc(b1-4)GlcNAc
# Method in brief: as §1
# [21] = molecular target: Neu5Ac(a2-6)Gal(b1-4)GlcNAc(b1-2)Man(a1-6)[Man(a1-3)]Man(b1-4)GlcNAc(b1-4)GlcNAc
# Method in brief: as §1
# [22] = molecular target: Neu5Ac(a2-6)Gal(b1-4)GlcNAc(b1-2)[Neu5Ac(a2-6)Gal(b1-4)GlcNAc(b1-4)]Man(a1-3)[GlcNAc(b1-4)][Neu5Ac(a2-6)Gal(b1-4)GlcNAc(b1-2)[Neu5Ac(a2-6)Gal(b1-4)GlcNAc(b1-6)]Man(a1-6)]Man(b1-4)GlcNAc(b1-4)GlcNAc
# Method in brief: as §1
# [23] = molecular target: Neu5Ac(a2-6)Gal(b1-4)GlcNAc(b1-2)[Neu5Ac(a2-6)Gal(b1-4)GlcNAc(b1-4)]Man(a1-3)[GlcNAc(b1-4)][Neu5Ac(a2-6)Gal(b1-4)GlcNAc(b1-4)Man(a1-6)]Man(b1-4)GlcNAc(b1-4)GlcNAc
# Method in brief: as §1
# [24] = molecular target: Neu5Ac(a2-6)Gal(b1-4)GlcNAc(b1-2)[Neu5Ac(a2-6)Gal(b1-4)GlcNAc(b1-6)]Man(a1-6)[Neu5Ac(a2-6)Gal(b1-4)GlcNAc(b1-2)Man(a1-3)][GlcNAc(b1-4)]Man(b1-4)GlcNAc(b1-4)GlcNAc
# Method in brief: as §1
# [25] = molecular target: Neu5Ac(a2-6)Gal(b1-4)GlcNAc(b1-3)Gal(b1-3)GlcNAc
# Method in brief: as §1
# [26] = molecular target: Neu5Ac(a2-6)Gal(b1-4)GlcNAc(b1-3)Gal(b1-4)GlcNAc
# Method in brief: as §1
# [27] = molecular target: Neu5Ac(a2-6)Gal(b1-4)GlcNAc(b1-3)Gal(b1-4)GlcNAc(b1-2)Man(a1-3)[Neu5Ac(a2-6)Gal(b1-4)GlcNAc(b1-3)Gal(b1-4)GlcNAc(b1-2)Man(a1-6)]GalNAc
# Method in brief: as §1
# [28] = molecular target: Neu5Ac(a2-6)Gal(b1-4)GlcNAc(b1-3)Gal(b1-4)GlcNAc(b1-3)Gal(b1-4)GlcNAc
# Method in brief: as §1
# [29] = molecular target: Neu5Ac(a2-6)Gal(b1-4)GlcNAc(b1-3)Gal(b1-4)GlcNAc(b1-3)Gal(b1-4)GlcNAc(b1-2)Man(a1-3)[Neu5Ac(a2-6)Gal(b1-4)GlcNAc(b1-3)Gal(b1-4)GlcNAc(b1-3)Gal(b1-4)GlcNAc(b1-2)Man(a1-6)]GalNAc
# Method in brief: as §1
# [30] = molecular target: Neu5Ac(a2-6)Gal(b1-4)GlcNAc(b1-3)Gal(b1-4)GlcNAc(b1-3)GalNAc
# Method in brief: as §1
# [31] = molecular target: Neu5Ac(a2-6)Gal(b1-4)GlcNAc(b1-3)Gal(b1-4)GlcNAc(b1-3)[Neu5Ac(a2-6)Gal(b1-4)GlcNAc(b1-3)Gal(b1-4)GlcNAc(b1-6)]GalNAc
# Method in brief: as §1
# [32] = molecular target: Neu5Ac(a2-6)Gal(b1-4)GlcNAc(b1-3)Gal(b1-4)GlcNAc(b1-6)[Gal(b1-3)]GalNAc
# Method in brief: as §1
# [33] = molecular target: Neu5Ac(a2-6)Gal(b1-4)GlcNAc(b1-3)Gal(b1-4)[Fuc(a1-3)]GlcNAc(b1-3)Gal(b1-4)[Fuc(a1-3)]GlcNAc
# Method in brief: as §1
# [34] = molecular target: Neu5Ac(a2-6)Gal(b1-4)GlcNAc(b1-3)GalNAc
# Method in brief: as §1
# [35] = molecular target: Neu5Ac(a2-6)Gal(b1-4)GlcNAc(b1-3)[Neu5Ac(a2-6)Gal(b1-4)GlcNAc(b1-6)]GalNAc
# Method in brief: as §1
# [36] = molecular target: Neu5Ac(a2-6)Gal(b1-4)GlcNAc(b1-6)GalNAc
# Method in brief: as §1
# [37] = molecular target: Neu5Ac(a2-6)Gal(b1-4)GlcNAc(b1-6)[Gal(b1-3)GlcNAc(b1-3)]Gal(b1-4)Glc
# Method in brief: as §1
# [38] = molecular target: Neu5Ac(a2-6)Gal(b1-4)GlcNAc(b1-6)[Gal(b1-3)]GalNAc
# Method in brief: as §1
# [39] = molecular target: Neu5Ac(a2-6)Gal(b1-4)GlcNAc6S
# Method in brief: as §1
# Neu5Ac(a2-6)GalNAc = molecular target: Neu5Ac(a2-6)GalNAc
# Method in brief: as §1
# [40] = molecular target: Neu5Ac(a2-6)GalNAc(b1-4)GlcNAc
# Method in brief: as §1
# [41] = molecular target: Neu5Ac(a2-6)GalNAc(b1-4)GlcNAc6S
# Method in brief: as §1
binder,measurement,setting,value
B1,glycan array binding signal (z-score),[1],-0.327
same,glycan array binding signal (z-score),Neu5Ac(a2-3)GalNAc,-0.317
same,glycan array binding signal (z-score),[2],-0.261
same,glycan array binding signal (z-score),[3],-0.353
same,glycan array binding signal (z-score),[4],-0.269
same,glycan array binding signal (z-score),[5],-0.029
same,glycan array binding signal (z-score),[6],-0.307
same,glycan array binding signal (z-score),Neu5Ac(a2-6)Gal,-0.252
same,glycan array binding signal (z-score),[7],-0.3
same,glycan array binding signal (z-score),Neu5Ac(a2-6)Gal(b1-4)Glc,-0.309
same,glycan array binding signal (z-score),[8],-0.257
same,glycan array binding signal (z-score),[9],-0.302
same,glycan array binding signal (z-score),[10],-0.23
same,glycan array binding signal (z-score),[11],-0.278
same,glycan array binding signal (z-score),[12],-0.344
same,glycan array binding signal (z-score),[13],-0.273
same,glycan array binding signal (z-score),[14],-0.367
same,glycan array binding signal (z-score),[15],-0.35
same,glycan array binding signal (z-score),[16],-0.279
same,glycan array binding signal (z-score),[17],-0.297
same,glycan array binding signal (z-score),[18],-0.334
same,glycan array binding signal (z-score),[19],-0.211
same,glycan array binding signal (z-score),[20],-0.222
same,glycan array binding signal (z-score),[21],-0.27
same,glycan array binding signal (z-score),[22],-0.253
same,glycan array binding signal (z-score),[23],-0.297
same,glycan array binding signal (z-score),[24],-0.33
same,glycan array binding signal (z-score),[25],-0.151
same,glycan array binding signal (z-score),[26],-0.172
same,glycan array binding signal (z-score),[27],0.534
same,glycan array binding signal (z-score),[28],0.648
same,glycan array binding signal (z-score),[29],0.38
same,glycan array binding signal (z-score),[30],-0.192
same,glycan array binding signal (z-score),[31],0.309
same,glycan array binding signal (z-score),[32],-0.114
same,glycan array binding signal (z-score),[33],-0.288
same,glycan array binding signal (z-score),[34],-0.275
same,glycan array binding signal (z-score),[35],-0.353
same,glycan array binding signal (z-score),[36],-0.291
same,glycan array binding signal (z-score),[37],-0.354
same,glycan array binding signal (z-score),[38],-0.317
same,glycan array binding signal (z-score),[39],-0.32
same,glycan array binding signal (z-score),Neu5Ac(a2-6)GalNAc,-0.284
same,glycan array binding signal (z-score),[40],-0.355
same,glycan array binding signal (z-score),[41],-0.248

# Source: the supplement of paper PMC8728848
